Data taken from the RNAGym collection of RNA variant scans (doi:10.7554/elife.90254).
Read counts are not given, so values of variants with three or more changes are uncertain.

B1: LINE1-mini (parent)
chain: GGCAGAGCUCAACACAGCGUGGCAAAGUGGCUGUGGCUAGACUGCC

Variants of: B1
Test: self-cleavage, relative activity (ratio to wild type); higher = more cleavage; in vitro, sequencing; the parent is a self-cleaving ribozyme

**Q.** With G29C U32G C42G as the variant, how does the self-cleavage read?
**A.** 0.14

**Q.** With G33A C42A C46U as the variant, how does the self-cleavage read?
**A.** 0.06

**Q.** With U34C C37A A41G C45U as the variant, how does the self-cleavage read?
**A.** 0.02

**Q.** For C31A U32G G40U, which self-cleavage is on record?
**A.** 0.08

**Q.** Which self-cleavage does the source give for G27C U34A G44U here?
**A.** 0.02

**Q.** Which self-cleavage does the source give for U28C U32C G44U here?
**A.** 0

**Q.** Which self-cleavage does the source give for G30U G36C C42A here?
**A.** 0.06

**Q.** For G35A A41G G44U, which self-cleavage is on record?
**A.** 0.01

**Q.** With U28G U38G C42A as the variant, how does the self-cleavage read?
**A.** 0.01

**Q.** Which self-cleavage does the source give for G29U A41U G44C here?
**A.** 0.15

**Q.** For C31A G40U C42U, which self-cleavage is on record?
**A.** 0.04

**Q.** For U28G G33U G40A, which self-cleavage is on record?
**A.** 0.03

**Q.** Which self-cleavage does the source give for G29U G36A U38G here?
**A.** 0.04

**Q.** Which self-cleavage does the source give for C31A A39C C46U here?
**A.** 0.04

**Q.** With U28G G29C G36A C37A as the variant, how does the self-cleavage read?
**A.** 0.01

**Q.** For U28G G30U A41C, which self-cleavage is on record?
**A.** 0.01

**Q.** With U28A G36A G40U A41G C46A as the variant, how does the self-cleavage read?
**A.** 0.29

**Q.** For C31U G36A C37A, which self-cleavage is on record?
**A.** 0.11

**Q.** For G29A G36C C37U, which self-cleavage is on record?
**A.** 0.02

**Q.** With G27C G30C C31A G44U as the variant, how does the self-cleavage read?
**A.** 0.07

**Q.** For G33C G35C C37A, which self-cleavage is on record?
**A.** 0.01

**Q.** For U28A G29C G30A, which self-cleavage is on record?
**A.** 0.72

**Q.** With G30U G40C C42A G44C C45A C46U as the variant, how does the self-cleavage read?
**A.** 0.05

**Q.** For G30U G35A G40C, which self-cleavage is on record?
**A.** 0.03

**Q.** With C31A G35U G40U as the variant, how does the self-cleavage read?
**A.** 0.04

**Q.** With G33C U38C G40A as the variant, how does the self-cleavage read?
**A.** 0.01

**Q.** For U28G G40C C45A, which self-cleavage is on record?
**A.** 0.01

**Q.** Which self-cleavage does the source give for G33A A39C G44C here?
**A.** 0.02

**Q.** Which self-cleavage does the source give for G29U C31A G40A C42A here?
**A.** 0

**Q.** With G35C U38C A41U as the variant, how does the self-cleavage read?
**A.** 0.06

**Q.** With G27U G33U G35C as the variant, how does the self-cleavage read?
**A.** 0.02

**Q.** For G33C C42U U43A, which self-cleavage is on record?
**A.** 0.08

**Q.** Which self-cleavage does the source give for G27C C31U U32A G40A here?
**A.** 0.03

**Q.** With G27U G35U A39U as the variant, how does the self-cleavage read?
**A.** 0.04

**Q.** For G30A A41G U43A C45U, which self-cleavage is on record?
**A.** 0.01

**Q.** With U34G U43G C46A as the variant, how does the self-cleavage read?
**A.** 0.07

**Q.** For G27U G30U G35C, which self-cleavage is on record?
**A.** 0.13

**Q.** Which self-cleavage does the source give for G29A U32G C42U here?
**A.** 0.01

**Q.** For G27U G35U C37U, which self-cleavage is on record?
**A.** 0

**Q.** With U28C G40U G44C as the variant, how does the self-cleavage read?
**A.** 0.02

**Q.** With G33U U34G G40A as the variant, how does the self-cleavage read?
**A.** 0.08

**Q.** With G30C G35U A39U as the variant, how does the self-cleavage read?
**A.** 0.09

**Q.** For G29U U32G C45U, which self-cleavage is on record?
**A.** 0.16

**Q.** With G29U U32G C45G as the variant, how does the self-cleavage read?
**A.** 0.13

**Q.** For G33U A41G C42U, which self-cleavage is on record?
**A.** 0.06

**Q.** For U28G A39C G40C, which self-cleavage is on record?
**A.** 0.02

**Q.** With G33A G36C C42G as the variant, how does the self-cleavage read?
**A.** 0.03

**Q.** Which self-cleavage does the source give for G30U U43A G44U here?
**A.** 0

**Q.** Which self-cleavage does the source give for G30C C42U C46G here?
**A.** 0.08

**Q.** For G30U G35U A39U, which self-cleavage is on record?
**A.** 0.05

**Q.** With C31U U34C G40C G44A as the variant, how does the self-cleavage read?
**A.** 0.01

**Q.** Which self-cleavage does the source give for G27U G30C G36C C45A here?
**A.** 0

**Q.** With C31A U34C G40U C42A C45G as the variant, how does the self-cleavage read?
**A.** 0.05

**Q.** For C31U G33U C46G, which self-cleavage is on record?
**A.** 0.07

**Q.** Which self-cleavage does the source give for U32A G36C A39C here?
**A.** 0.05

**Q.** With G29A G35C U38A C42G G44C as the variant, how does the self-cleavage read?
**A.** 0.05

**Q.** With G29U A39G C42U as the variant, how does the self-cleavage read?
**A.** 0.12

**Q.** With G33U U34C G36U C42G as the variant, how does the self-cleavage read?
**A.** 0.01

**Q.** Which self-cleavage does the source give for G33U G35C G44U here?
**A.** 0.36

**Q.** With G30A C37U C46G as the variant, how does the self-cleavage read?
**A.** 0.08

**Q.** With U28G U32A U34G G35C U38C as the variant, how does the self-cleavage read?
**A.** 0.05

**Q.** With G27U G36A C37U U38A as the variant, how does the self-cleavage read?
**A.** 0.02

**Q.** With U28A G35A C37U A39G as the variant, how does the self-cleavage read?
**A.** 0

**Q.** Which self-cleavage does the source give for G29U G30U U32G G35A C37A U43A here?
**A.** 0.1

**Q.** With G29U U32G C37G A39G as the variant, how does the self-cleavage read?
**A.** 0.04

**Q.** Which self-cleavage does the source give for G30C G35U U38A here?
**A.** 0.06

**Q.** Which self-cleavage does the source give for U28A G36U C37U here?
**A.** 0.02

**Q.** Which self-cleavage does the source give for U28G C37U C42U here?
**A.** 0.01

**Q.** With G30U C37A A39U as the variant, how does the self-cleavage read?
**A.** 0.1

**Q.** Which self-cleavage does the source give for G27C C37A C45G here?
**A.** 0.01

**Q.** With G29C G30U C31U C37U as the variant, how does the self-cleavage read?
**A.** 0.06

**Q.** Which self-cleavage does the source give for C31G G35A G36C C37A here?
**A.** 0.14

**Q.** For G29A U38C C45U C46U, which self-cleavage is on record?
**A.** 0.8

**Q.** Which self-cleavage does the source give for G29U U32A A39C here?
**A.** 0.06

**Q.** With G27C U28G G30A C31U G40U as the variant, how does the self-cleavage read?
**A.** 0.06

**Q.** For U32A A41G G44A, which self-cleavage is on record?
**A.** 0.04

**Q.** Which self-cleavage does the source give for C31A U34C U38C here?
**A.** 0.03

**Q.** With U28C A41G C45A as the variant, how does the self-cleavage read?
**A.** 0.06

**Q.** With G29U U34C A39G as the variant, how does the self-cleavage read?
**A.** 0.02

**Q.** Which self-cleavage does the source give for G29U A39C A41G C42U here?
**A.** 0.05

**Q.** Which self-cleavage does the source give for G29A G33U G35A here?
**A.** 0.05

**Q.** Which self-cleavage does the source give for G33U G44A C46U here?
**A.** 0.15

**Q.** With U32G C37U U38C A41C C45A as the variant, how does the self-cleavage read?
**A.** 0.05
